Source: PubChem BioAssay AID1346428 (National Center for Advancing Translational Sciences (NCATS), 2018)
The whole screen tested about 48,000 compounds, of which about 1,200 (2.5%) were called active. Roughly 2% stayed inconclusive and do not appear here.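 How the source made its calls: active means activation of at least 60% and not above a set upper limit (about 1 call in 100 departs from these limits); inconclusive means activation of 40% to 60%, or above that upper limit; inactive means activation under 40%.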 This is one part of the list.

Each compound was assayed against Probable G-protein coupled receptor 32 (Homo sapiens) (UniProt O75388) (assay: qHTS for Agonists of Human Resolvin D1 Receptor DRV1). Conditions: CHO-K1 GPR32 beta-arrestin PathHunter luminescence, 90 min; at 76.9 µM; stronger effect = higher value; zero percent set by DMSO-only wells.
Sequence of UniProt O75388 (O75388 whole entry, looked up): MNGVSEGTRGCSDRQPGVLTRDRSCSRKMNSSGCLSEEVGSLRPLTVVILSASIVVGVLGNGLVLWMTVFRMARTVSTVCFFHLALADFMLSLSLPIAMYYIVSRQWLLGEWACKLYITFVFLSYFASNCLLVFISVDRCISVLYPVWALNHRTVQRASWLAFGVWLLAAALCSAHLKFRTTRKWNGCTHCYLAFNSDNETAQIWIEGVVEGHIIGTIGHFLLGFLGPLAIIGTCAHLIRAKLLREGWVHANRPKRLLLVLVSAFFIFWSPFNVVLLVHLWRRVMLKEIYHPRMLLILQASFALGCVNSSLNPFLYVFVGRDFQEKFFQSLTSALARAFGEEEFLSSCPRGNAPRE
Procedure, shortened: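 Beta-arrestin recruitment read-out: luminescence from complemented beta-Gal in CHO-K1 GPR32 PathHunter cells, measured 1 h after detection reagent at ambient temperature following 90 min compound exposure at 37 °C; DMSO served as basal (EC0) control.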
With `CCOC(=O)c1cccc(NC(=O)C2CCN(S(=O)(=O)c3cn(C)cn3)CC2)c1` the activation was inactive: -15.9%.
`CCOC(=O)c1ccc(NC(=O)CC2C(=O)N(c3ccc(F)cc3)C(=O)N2Cc2ccc3c(c2)OCO3)cc1` (stereo not drawn) was tested, and the activation was inactive: -3.74%.
For `COCCCNc1ncnc2c1cnn2-c1ccc(F)cc1`, the activation was inactive: 6.13%.
For `CC(C)(C)OC(=O)N1CCC(c2c(C(=O)NCCN3CCC(Cc4ccccc4)CC3)cnn2-c2ccccc2)CC1`, the activation was inactive: -7.04%.
`CCc1ccc(NC(=O)N2CC(C)Oc3ccc(C)cc32)cc1` (stereo not drawn) was tested, and the activation was inactive: -40.9%.
For `COc1cc2ccccc2cc1C(=O)Nc1ccc2oc(-c3cccc(Cl)c3Cl)nc2c1`, the activation was inactive: 0.403%.
For `CCCn1c(NCc2ccccc2C)nc2ccccc21`, the activation was inactive: 30.9%.
In the case of `COc1ccc(-n2cc(-c3ccccc3)nc2SCC(=O)Nc2ccccc2)cc1Cl`, the activation is reported as inactive: -17.7%.
`CCc1ccc(S(=O)(=O)c2nnn3c2nc(N2CCCC2)c2sccc23)cc1` was tested, and the activation was inactive: -3.27%.
In the case of `COc1ccc(-n2nc3c(N4CCCC(C(=O)NCCc5ccc(C)cc5)C4)nnc(C)c3c2C)cc1` (stereo not drawn), the activation is reported as inactive: 10%.
For `CCOC(=O)c1ccc(NC(=O)Cn2cnc(S(=O)(=O)N3CCCC3)c2)cc1`, the activation was inactive: 9.47%.
For `COc1ccc(-c2cc(C(F)(F)F)n3nc(C(=O)Nc4cccc(Cl)c4C)cc3n2)cc1`, the activation was inactive: 17.6%.
`CN1C(=O)Cc2cc(S(=O)(=O)CCC(=O)N3CCN(c4ccccc4F)CC3)ccc21` was tested, and the activation was inactive: -23.2%.
In the case of `Cc1nn(-c2ccc(N3CCCCC3)nn2)c(C)c1CCC(=O)NCc1ccccc1F`, the activation is reported as inactive: -13.4%.
With `Cc1ccccc1C1C=C(c2ccc(Cl)cc2)Nc2nnnn21` (stereo not drawn) the activation was inactive: -1.52%.
For `COc1ccc(NC(=O)COCc2cc(-c3cccs3)on2)cc1`, the activation was inactive: -16.3%.
For `CCCCOc1ccc(CNC(=O)CCCN2C(=O)CSc3c2c(C)nn3-c2ccccc2)cc1`, the activation was inactive: 3.24%.
For `CCOC(=O)c1ccccc1NC(=O)c1sc2nc3n(c(=O)c2c1C)CCCC3`, the activation was inactive: -5.42%.
`CCc1ccc(CNC(=O)CN2C(=O)c3cccnc3Oc3ccc(C)cc32)cc1` was tested, and the activation was inactive: -11.1%.
With `Cc1ccc2c(=O)cc(C(=O)Nc3ccc(S(=O)(=O)N4CCCCCC4)cc3)oc2c1C` the activation was inactive: -0.294%.
With `CSc1ncc(Cl)c(C(=O)N(Cc2ccc(N(C)C)cc2)Cc2ccco2)n1` the activation was inactive: 5.76%.
For `Cc1c(Cl)cccc1NC(=O)C(C)n1nnc2sc3c(c2c1=O)CCCC3` (stereo not drawn), the activation was inactive: 5.78%.
For `Cc1c(C)n(C)c2ccc(C(=O)N3CCN(c4ccccc4)CC3)cc12`, the activation was inactive: -29.2%.
In the case of `Cc1ccc(CNC(=O)Cn2cc(C(=O)c3ccc(F)cc3)c(=O)c3ccc(C)nc32)cc1`, the activation is reported as inactive: 3.59%.
With `Cc1cccc(C2CC(=O)Oc3c2c(=O)n(C)c2ccccc32)c1` (stereo not drawn) the activation was inactive: -0.527%.
In the case of `CCc1ccc(Cc2cnc(NC(=O)c3ccc4c(c3)CC(c3ccccc3)OC4=O)s2)cc1` (stereo not drawn), the activation is reported as inactive: 3.81%.
With `CCOC(=O)C1CCN(C(=O)C2CCN(C3=NS(=O)(=O)C(c4ccc(C)c(C)c4)=C3C)CC2)CC1` the activation was inactive: 2.03%.
In the case of `Cc1ccc(-n2c(=O)c3oc4ccccc4c3n(Cc3ccccc3F)c2=O)cc1C`, the activation is reported as inactive: -9.63%.
`O=C(Cn1c(=O)n(-c2ccc(F)c(Cl)c2)c(=O)c2sc3ccccc3c21)NC1CCCC1` was tested, and the activation was inactive: -6.6%.
In the case of `CC(C)CCNC(=O)C1CCC(Cn2c(=O)c3sccc3n(CC(=O)NC(C)C)c2=O)CC1` (stereo not drawn), the activation is reported as inactive: -7.71%.
`CCC(C)NC(=O)C(=O)Nc1c2c(nn1-c1ccccc1)CS(=O)(=O)C2` (stereo not drawn) was tested, and the activation was inactive: -5.5%.
With `COc1ccc(CNC(=O)c2cc3c(s2)-c2ccccc2OC3)cc1` the activation was inactive: -2.66%.
With `CC1CN(C(=O)CCC(=O)NCc2ccc(F)cc2)c2cc(Cl)ccc2O1` (stereo not drawn) the activation was inactive: -22%.
For `O=C(c1ccc2c(c1)N(Cc1ccc(Cl)cc1)C(=O)c1ccccc1S2(=O)=O)N1CCCCC1`, the activation was inactive: -5.33%.
With `O=C(Nc1nc2ccc(F)cc2s1)c1nc(S(=O)(=O)Cc2ccccc2)ncc1Cl` the activation was active: 90.7%.
In the case of `CCOC(=O)c1c(NC(C)=O)c2c3c(sc2n1Cc1nc(-c2ccccc2C)oc1C)CCCC3`, the activation is reported as inactive: -1.73%.
`COc1ccc(NC(=O)CSc2nc3c(oc4ccccc43)c(=O)n2-c2ccc(C)c(C)c2)cc1` was tested, and the activation was inactive: -15.2%.
With `CCOc1ccc(CCNC(=O)C2COc3ccccc3C2)cc1OCC` (stereo not drawn) the activation was inactive: -20%.
In the case of `O=C(CN1C(=O)CCSc2ccccc21)Nc1ccccc1F`, the activation is reported as inactive: -1.06%.
With `Cc1ccc(NC(=O)C(=O)NCC(c2cccnc2)N2CCN(C)CC2)cc1F` (stereo not drawn) the activation was inactive: 0.636%.
With `COC(=O)C(CCSC)NC(=O)c1c(C)oc2ncn(CC(C)C)c(=O)c12` (stereo not drawn) the activation was inactive: -43.8%.
For `Cc1c(Cl)cccc1NC(=O)CSc1ncccc1C(=O)Oc1ccccc1Cl`, the activation was inactive: -9.42%.
With `CCOC(=O)c1ccc(NC(=O)c2ccc3c(c2)NC(=O)c2ccccc2S3)cc1` the activation was inactive: 9.4%.
`COc1cccc(C(=O)Nc2ccc(-c3cn4cccnc4n3)cc2)c1OC` was tested, and the activation was inactive: 21.2%.
With `CCOc1ccc(NC(=O)Cn2ccn(-c3ccc(F)c(F)c3)c(=O)c2=O)cc1` the activation was inactive: -4.83%.
For `COc1ccc(CNC(=O)c2cccc(-n3cnc4cccnc43)c2C)cc1`, the activation was inactive: -2.74%.
In the case of `COc1cc2ccccc2cc1C(=O)Nc1ccc(Cl)c(-c2nc3ccccc3o2)c1`, the activation is reported as inactive: 12.6%.
`CCOCCSc1c(C)cnc2c1c(=O)n(C)c(=O)n2C` was tested, and the activation was inactive: 0.0504%.
For `CCC(C)NC(=O)c1ccc2nc(Cc3ccc(OC)cc3)oc2c1` (stereo not drawn), the activation was inactive: -25.1%.
With `CCn1ccc2cc(S(=O)(=O)N3CCC(C(=O)NCCc4ccc(C)cc4)CC3)ccc21` the activation was inactive: -14%.
`COc1ccc(NC(=O)CSCc2cnn(-c3ccccc3)c2-n2cccc2)cc1` was tested, and the activation was inactive: -9.73%.
For `COc1cc(C(=O)N2CCN(CCc3ccccn3)CC2)cc(OC)c1OC`, the activation was inactive: 19.8%.
With `COc1cc(OC)cc(C(=O)NCC(c2cccs2)S(=O)(=O)c2ccc(F)c(C)c2)c1` (stereo not drawn) the activation was inactive: -12.2%.
`COc1ccccc1NC(=O)CN1C(=O)C2(SCC(=O)N2c2ccc(C)c(C)c2)c2ccccc21` (stereo not drawn) was tested, and the activation was inactive: 18.7%.
In the case of `CC1=C(c2ccc(C)cc2)S(=O)(=O)N(Cc2ccc(C(=O)Nc3ccc(F)cc3C)cc2)C1=O`, the activation is reported as inactive: 0.313%.
For `Cc1cccc(-c2nc3c4ccccc4nc(NCc4ccc(Cl)cc4)n3n2)c1`, the activation was inactive: -1.58%.
With `CC(=O)c1ccc(NC(=O)CSc2cn(CC(=O)N3CCCCCC3)c3ccccc23)cc1` the activation was inactive: -5.29%.
For `CCc1ccc2oc(-c3cc(NC(=O)C(C)C)cc(C)c3O)nc2c1`, the activation was inactive: 7.15%.
For `COc1ccc(NC(=O)CSc2oc(-c3ccco3)nc2S(=O)(=O)c2ccc(Br)cc2)c(OC)c1`, the activation was inactive: -11.1%.
`COc1ccc(-c2cc(C(=O)NCc3ccc(F)cc3)c3c(-c4ccc(F)cc4)[nH]nc3n2)cc1OC` was tested, and the activation was inactive: -3.9%.
In the case of `CC(C)Cn1c(=O)c2sccc2n2c(CCCC(=O)NCc3ccccc3Cl)nnc12`, the activation is reported as inactive: -11.1%.
`COc1cccc(CNC(=O)C2CCN(S(=O)(=O)c3cn(C)cn3)CC2)c1` was tested, and the activation was inactive: -11.9%.
For `CC(=O)N1c2ccc(S(=O)(=O)N3CCCCCC3)cc2CC1C(=O)NCc1ccc(Cl)cc1` (stereo not drawn), the activation was inactive: -4.48%.
With `CCOC(=O)N1CCC(NC(=O)c2cnn(-c3cccc(Cl)c3C)c2C2CCN(C(=O)OC(C)(C)C)CC2)CC1` the activation was inactive: 8.54%.
In the case of `CCCOc1ccc(-c2nonc2NC(=O)c2oc3ccc(C)cc3c2C)cc1OCCC`, the activation is reported as inactive: -4.27%.
For `O=C(Cn1cc(SCc2ccc(C(F)(F)F)cc2)c2ccccc21)N1CCCC1`, the activation was inactive: -6.49%.
`CCc1sc(Nc2cccc(Cl)c2C)nc1-c1cc2cccc(OC)c2oc1=O` was tested, and the activation was inactive: -32.6%.
In the case of `COc1cccc(CN2CCc3nc(N4CCN(c5ncccn5)CC4)ncc3C2)c1`, the activation is reported as inactive: -14.8%.
`Oc1ccc(Cl)cc1C1=Nc2ccccc2N=C(c2cccc(Br)c2)C1` was tested, and the activation was inactive: -4.62%.
In the case of `CN1CCN(c2nc3c(S(=O)(=O)c4ccc(Br)cc4)nnn3c3ccsc23)CC1`, the activation is reported as inactive: -0.768%.
For `O=C(CC1C(=O)OCCN1Cc1ccccc1)Nc1cccc(C(F)(F)F)c1` (stereo not drawn), the activation was active: 112%.
With `COc1ccc(OC)c(NC(=O)c2cc(CN3CCCC3)on2)c1` the activation was inactive: -15.9%.
With `S=c1nc[nH]c2nc[nH]c12` the activation was inactive: -0.834%.
For `COc1cc(OC)c(NC(=O)NCc2ccc3c(c2)CCN3C(=O)c2ccccc2)cc1Cl`, the activation was inactive: -11.7%.
With `COC(=O)c1sc2cccc(F)c2c1S(=O)(=O)N1CCN(c2ccc(F)cc2)CC1` the activation was inactive: -28.6%.
For `Cc1nc2nc(SCC(=O)NCCc3ccc(Cl)cc3)nn2c(C)c1Cc1ccccc1`, the activation was inactive: -0.701%.
For `CCCSc1ncc(Cl)c(C(=O)Nc2nc3ccc(OCC)cc3s2)n1`, the activation was inactive: -13%.
In the case of `Cc1ccc(CNC(=O)c2ccc3c(=O)n(-c4ccccc4)c(=O)[nH]c3c2)cc1`, the activation is reported as inactive: -6.94%.
`COc1ccc2c(c1)CCc1c(C(=O)Nc3c(C)nn(Cc4ccc(Cl)c(Cl)c4)c3C)noc1-2` was tested, and the activation was inactive: -2.89%.
With `Cc1ccc(S(=O)(=O)c2nc(-c3cccc(C)c3)oc2N2CCN(c3ccccc3)CC2)cc1` the activation was inactive: -9.74%.
`Cc1ccc2c(c1)cc1c(=O)n(CC(=O)NC3CCCCC3)nc(C)n12` was tested, and the activation was inactive: -3.13%.
For `CC(=O)c1cc(C(=O)Nc2cc(C)cc(C)c2)c2ccccn12`, the activation was inactive: -4.03%.
With `COC(=O)C(CCSC)NC(=O)c1cc2c(n(-c3ccc(C)cc3)c1=O)CC(C)(C)CC2=O` (stereo not drawn) the activation was inactive: 1.55%.
